B2: Proleukin (ligand)
chain: not shown

How the values were obtained:
[1] = molecular target: T1, human IL-2Rα on Treg cells (CD3+, CD4+, CD25hi, FoxP3+) of human PBMC (human, UniProt P01589 22-272); test: cell-based or functional assay
T1 sequence (looked up): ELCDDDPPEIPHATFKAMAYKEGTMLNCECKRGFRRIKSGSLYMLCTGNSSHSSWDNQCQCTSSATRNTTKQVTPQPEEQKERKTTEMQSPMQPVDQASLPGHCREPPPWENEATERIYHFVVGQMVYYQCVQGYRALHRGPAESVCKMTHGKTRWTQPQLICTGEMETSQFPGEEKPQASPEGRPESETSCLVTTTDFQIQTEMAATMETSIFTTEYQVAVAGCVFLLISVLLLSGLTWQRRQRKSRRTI

[2] = molecular target: T2, trimeric murine IL-2 receptor (IL-2Rα, IL-2Rβ, and IL-2Rγ) on CTLL-2 cells (murine, UniProt P01590 22-268; P16297 27-539; P34902 23-369); test: cell-based or functional assay
T2 sequence (looked up) 1: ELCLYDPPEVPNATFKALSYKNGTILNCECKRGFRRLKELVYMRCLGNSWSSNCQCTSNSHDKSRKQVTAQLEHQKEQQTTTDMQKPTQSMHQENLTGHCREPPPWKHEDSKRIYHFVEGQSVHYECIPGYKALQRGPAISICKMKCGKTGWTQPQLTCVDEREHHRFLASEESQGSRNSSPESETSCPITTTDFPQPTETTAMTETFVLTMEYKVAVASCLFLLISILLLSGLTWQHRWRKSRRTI
T2 sequence (looked up) 2: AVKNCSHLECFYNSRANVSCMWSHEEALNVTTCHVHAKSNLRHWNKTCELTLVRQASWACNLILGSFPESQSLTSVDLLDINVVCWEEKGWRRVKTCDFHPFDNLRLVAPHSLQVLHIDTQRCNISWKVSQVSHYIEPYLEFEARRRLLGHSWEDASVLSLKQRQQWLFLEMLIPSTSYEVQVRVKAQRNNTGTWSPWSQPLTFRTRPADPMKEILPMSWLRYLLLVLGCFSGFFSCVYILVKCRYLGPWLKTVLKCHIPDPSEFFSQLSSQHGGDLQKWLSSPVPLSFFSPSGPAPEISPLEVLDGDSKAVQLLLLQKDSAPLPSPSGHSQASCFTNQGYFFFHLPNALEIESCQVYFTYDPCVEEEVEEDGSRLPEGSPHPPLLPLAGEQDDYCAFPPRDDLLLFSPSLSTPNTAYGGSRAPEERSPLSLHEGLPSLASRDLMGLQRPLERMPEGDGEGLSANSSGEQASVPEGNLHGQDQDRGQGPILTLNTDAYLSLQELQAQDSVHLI
T2 sequence (looked up) 3: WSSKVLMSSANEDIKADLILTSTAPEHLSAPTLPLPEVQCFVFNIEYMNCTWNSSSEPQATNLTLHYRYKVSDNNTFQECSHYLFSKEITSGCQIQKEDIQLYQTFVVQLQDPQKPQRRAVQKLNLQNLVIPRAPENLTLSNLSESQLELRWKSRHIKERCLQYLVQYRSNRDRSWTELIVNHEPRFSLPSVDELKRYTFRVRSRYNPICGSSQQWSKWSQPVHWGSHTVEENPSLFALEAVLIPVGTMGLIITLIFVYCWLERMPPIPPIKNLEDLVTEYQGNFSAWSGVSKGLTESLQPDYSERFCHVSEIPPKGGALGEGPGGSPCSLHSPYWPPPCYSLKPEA

[3] = molecular target: T3, IL-2Rα (recombinant IL-2 receptor α, R&D Systems Cat #: 223-2A/CF), biotinylated (human, UniProt P01589 22-213, limits assumed, biotinylated using sulfo-NHS-LC-LC-Biotin); test: SPR (Biacore), CM4 chip, biotinylated receptor on neutravidin
T3 construct: Bought reagent; also used here as the IL-2Rα partner of the in-silico analysis of PDB 2B5I (another construct); also called IL-2RA; CD25
T3 sequence (looked up): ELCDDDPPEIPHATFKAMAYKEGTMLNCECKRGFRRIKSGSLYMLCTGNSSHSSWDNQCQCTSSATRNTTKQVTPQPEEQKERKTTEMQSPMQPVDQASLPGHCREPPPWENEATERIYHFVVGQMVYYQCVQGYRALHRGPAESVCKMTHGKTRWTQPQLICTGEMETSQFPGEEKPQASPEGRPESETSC
Experimental: (§1) Fc-IL-2 variant binding data was collected on a Biacore platform using a CM4 chip. Neutravidin was immobilized using standard amine coupling methods and used to capture biotinylated receptors. The source, preparation and immobilization of biotinylated IL-2Rα and IL-2Rβγ heterodimer was as described in Example 4. Proleukin was used as a comparator. Fc-IL-2 variants and Proleukin were injected at various concentrations over these surfaces. Kinetic data obtained from these injections was used to extract kₒₙ and koff to calculate KD (KD=Koff/kₒₙ).

[4] = molecular target: T3, IL-2Rα (recombinant IL-2 receptor α, …); test: SPR (Biacore), C1 or CM5 chip, biotinylated receptor on neutravidin
Text: (§2) Data for binding of Fc-IL-2 variant fusion proteins to IL-2Rα, IL-2Rβ and IL-2Rβγ heterodimer were collected on a Biacore platform using either C1 or CM5 chips. Neutravidin was immobilized using standard amine coupling methods and used to capture biotinylated receptors. Commercially sourced IL-2Rα (R&D Systems Cat #: 223-2A/CF) and IL-2Rβ receptors (R&D Systems Cat #:224-2B-025/CF) were biotinylated using sulfo-NHS-LC-LC-Biotin, desalted, and then captured on the neutravidin surfaces. […] Distinct purification tags were appended to the C-terminus of each chain. A FLAG epitope tag ([…]; SEQ ID NO: 257) was added at the C-terminus of IL-2Rβ subunit, followed by C-terminal Hiss tag ([…]; SEQ ID NO: 258). An AviTag™ ([…]; SEQ ID NO: 259) motif on the IL-2Rγ subunit allowed for site-specific biotinylation of the heterodimer.
(§3) Fc IL 2 fusion protein variants, Fc protein, and Proleukin were injected at various concentrations over these surfaces. Kinetic data obtained from these injections was used to extract kₒₙ and koff to calculate KD (KD=koff/kₒₙ). Experiments were run at 25° C. in HBS-EP+ running buffer (10 mM HEPES, 150 mM NaCl, 3 mM EDTA, 0.05% Tween20, pH 7.4 with 0.1 mg/ml BSA). Data shown in Table 5 for Fc IL-2 fusion protein variants binding to the indicated IL-2R surfaces were derived from the global fitting of data obtained from 2-5 independent surfaces.

[5] = molecular target: T4, IL-2Rβ (recombinant IL-2 receptor β, R&D Systems Cat #:224-2B-025/CF), biotinylated (UniProt P14784 27-239, limits assumed, biotinylated using sulfo-NHS-LC-LC-Biotin); test: as above
T4 construct: Bought reagent; also called IL-2RB; CD122
T4 sequence (looked up): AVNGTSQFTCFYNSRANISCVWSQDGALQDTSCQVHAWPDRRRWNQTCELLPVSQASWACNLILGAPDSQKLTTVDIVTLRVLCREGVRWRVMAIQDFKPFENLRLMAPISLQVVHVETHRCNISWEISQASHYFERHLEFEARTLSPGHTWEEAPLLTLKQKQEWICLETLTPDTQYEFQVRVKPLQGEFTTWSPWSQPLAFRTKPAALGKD
Text: as §2, §3

[6] = molecular target: B2; test: SPR (Biacore), CM4 chip, biotinylated receptor on neutravidin
Experimental: as §1

B1: Fc-IL-2 heterodimer 118.46 (hIL-2v_T3A_C125S), intact N-terminus (Fc fusion)
chain 1: not shown
chain 2: ESKYGPPCPPCPAPEAAGGPSVFLFPPKPKDTLMISRTPEVTCVVVDVSQEDPEVQFNWYVDGVEVHNAKTKPREEQFNSTYRVVSVLTVLHQDWLNGKEYKCKVSNKGLPSSIEKTISKAKGQPREPQVYTLPPSQEEMTKNQVSLSCAVKGFYPSDIAVEWESNGQPENNYKTTPPVLDSDGSFFLVSRLTVDKSRWQEGNVFSCSVMHEALHNRFTQKSLSLSLGK
Treg EC50, STAT5 activation (PBMC STAT5 assay) [1]: < 0.001 nM | STAT5 activation of CTLL-2 cells, EC50 [2]: 0.002 nM

B2
Kd [3]: 80 nM | Kd [4]: 15 nM | Kd [5]: 2300 nM

B3: IL-2Rβγ heterodimer, custom biotinylated Fc fusion protein (human IL-2Rβ 27-240-Fc-FLAG / human IL-2Rγ 23-262-Fc-AviHis) (Fc fusion)
chain 1: AVNGTSQFTCFYNSRANISCVWSQDGALQDTSCQVHAWPDRRRWNQTCELLPVSQASWACNLILGAPDSQKLTTVDIVTLRVLCREGVRWRVMAIQDFKPFENLRLMAPISLQVVHVETHRCNISWEISQASHYFERHLEFEARTLSPGHTWEEAPLLTLKQKQEWICLETLTPDTQYEFQVRVKPLQGEFTTWSPWSQPLAFRTKPAALGKDTGAQ[sequence of human IgG1 Fc with changes omitted]GSGSDYKDDDDK
chain 2: LNTTILTPNGNEDTTADFFLTTMPTDSLSVSTLPLPEVQCFVFNVEYMNCTWNSSSEPQPTNLTLHYWYKNSDNDKVQKCSHYLFSEEITSGCQLQKKEIHLYQTFVVQLQDPREPRRQATQMLKLQNLVIPWAPENLTLHKLSESQLELNWNNRFLNHCLEHLVQYRTDWDHSWTEQSVDYRHKFSLPSVDGQKRYTFRVRSRFNPLCGSAQHWSEWSHPIHWGSNTSKENPFLFALEAGAQ[sequence of human IgG1 Fc with changes omitted]GSGSGLNDIFEAQKIEWHEHHHHHHHH
modifications: site-specific biotinylation at the AviTag
notes: Extracellular regions fused to IgG1 knob-in-hole Fc subunits with tags; also called IL-2 receptor βγ heterodimer; Fc-IL-2Rβγ
Kd [6]: 0.052 nM

Reference: patent US20240269235A1 (Gilead, published 2024)
